Residue numbers refer to the chain shown, from its start. Some of the results follow.
B1: chrX:69798090:69798091:-_ENSMUSG00000031343_ENSMUST00000055966|mus_mus|mus_mus_mus_hu_False|18_78 (ssRNA)
RNA: GGGAGUUCUACAGUCCGACGAUCAAGUCCCCGGGUUCUUGUCGUCUUGAUUCCCCUUGGCUAGUGGUUCCAGGGAGAAUAUUAAUCAGGAAAAGAAUCCCAAGGCUGGUCAUGUAAAAGUGCCACAUUUGUGUGAUUAUCAUCCAACAGAGGAUUGAGCAUCA
B2: chr5:179004091:179004092:+_ENSG00000176783_ENST00000393438|hu_mus|FALSE|FALSE (ssRNA)
RNA: GGGAGUUCUACAGUCCGACGAUCUUCAUGCUCUCUGCCGCUGUCAAGAUCCUGUGCGUCCUUCAGACAGAGAGAGAAGUCAAUCACCCCGACCUGAGAAUCCAAGUCUUCUCCCUUUAAGCAGAGGUUGGCAUCCAGAACGUUCAACAGAGGAUUGAGCAUCA
B3: chr1:245023758:245023759:-_ENSG00000153187_ENST00000283179|hu_hu|FALSE|FALSE (ssRNA)
RNA: GGGAGUUCUACAGUCCGACGAUCAGCAAAACUCUCCAUUGUAAGGGAAGAAGCACUGAGACGAUCUCUUGAUAUUUUAAAAUGUAGAUCACAAUUAUAAGUAUCAAGACAAACCACUGUGUCAUCGAAGUGUUCAUCUUCUUCCAACAGAGGAUUGAGCAUCA
B4: chr17:62499352:62499353:-_ENSG00000108654_ENST00000581693|hu_mus|motif|central (ssRNA)
RNA: GGGAGUUCUACAGUCCGACGAUCUCUUAUUUGAUCCACAAUUUUCCUUAUCUGGGGUUCAAAUCCCAUAUCAAGCAUCCGGUCAGCUUCAUCAAGGACAAGGUAAGUUGUUCUUCUCAGAUUGGUUUUCCCACACUCUAAAAACAACAGAGGAUUGAGCAUCA
B5: chr7:54825262:54825263:-_ENSG00000132432_ENST00000352861|hu_hu|hu_hu_hu_mus_False|28_28 (ssRNA)
RNA: GGGAGUUCUACAGUCCGACGAUCCUGCCGGCUGGGCUCCACAAACUGCAUUACCUGAUCCAUGUUUGUUGGAUGGCGGAUUGAGAGCGUAGAGACACGUAGCUCAGGGAGCUUGCUAGCCCAACGGAACCGGAAGCUGGCAACCAACAGAGGAUUGAGCAUCA
B6: chr17:65740002:65740003:+_ENSG00000130935_ENST00000581375|hu_hu|hu_hu_hu_mus_False|48_48 (ssRNA)
RNA: GGGAGUUCUACAGUCCGACGAUCAACAAAUCUUUCUUCCCUGGACGAACAGGAAGAUUCAUAUUAAAAAAAAUAUAUAUCCAUCAAGGAGAAUUGAGUGGCCACACCUUUACUCCCAGCACUUUGGGAGGUGGAUCUCUGAGUCAACAGAGGAUUGAGCAUCA
B7: chr22:32879901:32879902:+_ENSG00000100225_ENST00000397426|hu_mus|hu_hu_hu_mus_False|8_18 (ssRNA)
RNA: GGGAGUUCUACAGUCCGACGAUCCUCUUCCAUACUCAUGGCAUCCUGAAUUGACUCAGCUUCAACAUUUUGACUAGGCCCUUCCAUACUGUCAUCAGUCCAGGCAUCAAAUGGGGUUGCCUGUCCUUGGAAUGAAUCAGUCCCCAACAGAGGAUUGAGCAUCA
B8: chr12:39763582:39763583:-_ENSG00000139116_ENST00000544797|hu_mus|hu_hu_hu_mus_False|1_18 (ssRNA)
RNA: GGGAGUUCUACAGUCCGACGAUCCUCUAGGAACUGGGCAUUCACUUUGAAUUCAGGAGGGGGCAGCCCGUUUUUAAUCGCUGAGGUCUUUUUCUCAUCAAUACUCUUGAACAGGUGUUUAACAGCUCGAGAGAUGAUACCCAGCAACAGAGGAUUGAGCAUCA
B9: chrX:69798090:69798091:-_ENSMUSG00000031343_ENSMUST00000055966|mus_mus|FALSE|FALSE (ssRNA)
RNA: B1 RNA with G32A, U81C, A91G, U97G, C98U, C99A, G103C, G104U, U112C, G113A
B10: chr18:34480306:34480307:+_ENSMUSG00000005871_ENSMUST00000115781|mus_mus|motif|central (ssRNA)
RNA: GGGAGUUCUACAGUCCGACGAUCCUUUUACUUCUAACAUUAAUUUCUUAAAACAUGAAUUAAAAGGCAAUUGUAUUCGGACGGAAACCUCAUCUCUUUCCACAAAACUACUUGAAGUGCCUUAUAAAAACUGACGUGCAGUAACAACAGAGGAUUGAGCAUCA
B11: chr19:6374144:6374145:+_ENSMUSG00000024949_ENSMUST00000113487|mus_hu|FALSE|FALSE (ssRNA)
RNA: GGGAGUUCUACAGUCCGACGAUCGGGUCCAUUGGGGUUGUGCUGCAUGGGAUGUCCACCAUGCCCACCUGUCAGGCUGGGUAAUGGGUGUGGGAAGCUGUGGGGGCCACCUCCGGGCCCACCAGGACCACCUCCAUGCAUGCCCAACAGAGGAUUGAGCAUCA
B12: chr5:108714581:108714582:-_ENSG00000198961_ENST00000361557|hu_mus|motif|central (ssRNA)
RNA: GGGAGUUCUACAGUCCGACGAUCUGACAGGUCAGCGUAGAUCUCUGCCUCUCCAUUUUCCAGCUCAAAGACUGCACGGCCGGACCCCUUCUGAUGUCUACCACCUUCCACAGCUUCAGCGCCAAGUUGAAGAGAGCCAUUCUCCAACAGAGGAUUGAGCAUCA
B13: chr3:176767854:176767855:-_ENSG00000177565_ENST00000430069|hu_hu|hu_hu_hu_mus_False|78_78 (ssRNA)
RNA: GGGAGUUCUACAGUCCGACGAUCGACAUCCUUGUUACUGGGCACGUCCUGCCCUCCUUCUCGUAUACAGUGUCUAAGCACGAGCUGCGUAGGGCCACUCGUGCUGUUCUCACUGAGGUUCCAGAUUCUUGCCGUGGAGUCUCCCAACAGAGGAUUGAGCAUCA
B14: chr16:83842930:83842931:+_ENSG00000230989_ENST00000433866|hu_hu|motif|central (ssRNA)
RNA: GGGAGUUCUACAGUCCGACGAUCUUCUUCCACCCCAGCCUGUGUCAUGAGGUCCGCGAUAUUCUUUUCCAGAUCAUCAAUGCGACGGCUCAUAUCAUCAAUUCUCCCAAUGAUCUGGUCAGACAUGGUCUGAAAUUUAUCUUGCAACAGAGGAUUGAGCAUCA
B15: chr5:139724684:139724685:+_ENSMUSG00000036817_ENSMUST00000110883|mus_mus|FALSE|FALSE (ssRNA)
RNA: GGGAGUUCUACAGUCCGACGAUCGCCUGGAAACCUGCCAGCCUAUCUGCUUCUUGACUUUAUGCAUUCAAGCAAAUCCCUAAGUCAAAAGGAGUGUCCGAGAAUCAUACAUUCAAAUGAAUUAAAAAAGCCUCCCCGGCUUUUCAACAGAGGAUUGAGCAUCA
B16: chr18:56819859:56819860:+_ENSG00000166562_ENST00000588875|hu_mus|hu_hu_hu_mus_True|88_108 (ssRNA)
RNA: GGGAGUUCUACAGUCCGACGAUCAACUUUGAUUACUCUGUGAACUAUUGGAAUGUCUCUUCCUUCAACCUUAAAAACAACUAUUUCACCAGCUCUGAUGGGGUCCUCCCGGAAAUUCGUGAGGAACAGCAGAUCUCCUCUGUGCAACAGAGGAUUGAGCAUCA
B17: chr9:31209820:31209821:+_ENSMUSG00000042185_ENSMUST00000086167|mus_hu|motif|central (ssRNA)
RNA: GGGAGUUCUACAGUCCGACGAUCUUCUUGCUUACAGAAGGCCUGAUCUUUGGUCUCUAGCCAUAGCUGGAAGAGGGCAGCGGAUUCCUUUUCAUUAUCUUGGGAUUGGCCAAGCAACUUCCACUGCUGGGUUUUCUCUUUGAACAACAGAGGAUUGAGCAUCA
B18: chrX:71549400:71549401:+_ENSMUSG00000019087_ENSMUST00000019231|mus_hu|mus_mus_mus_hu_False|1_1 (ssRNA)
RNA: GGGAGUUCUACAGUCCGACGAUCGCAGUAGGAAGAGGGAAGCUCUUCAGUCCAGUGCGCUGCAGGGUGGGAAAGCAACAACACGGACACCGUCCCACCCUCAACCCCCCCACUGGCACAGGGUCACACAAUCUGGGAAGUGAUCAACAGAGGAUUGAGCAUCA
B19: chr4:39523128:39523129:-_ENSG00000109814_ENST00000316423|hu_hu|FALSE|FALSE (ssRNA)
RNA: GGGAGUUCUACAGUCCGACGAUCACAUGUGGGUCCUCCAACAUAGCCUGCACCGAUGCAACAGAUCUUCUUAAUUUCAAACAUGAUUGUACCACUUCCCAGCAGCAAGCGCAGGGACCGCUCCUAUCCCGAUCGUUCGGACAGCAACAGAGGAUUGAGCAUCA
B20: chr12:120565580:120565581:-_ENSG00000089154_ENST00000300648|hu_hu|motif|central (ssRNA)
RNA: GGGAGUUCUACAGUCCGACGAUCUGGAGGAGGCAAUUUUCAGUUGUGUGUGGGUUUGAUUUAAGGCUUUGGCUGUGGUCGGUUGAUAUUAAAAUACUUUCUGGGAACGCCAUCUUCCAAGCUCCCCAUUGGAACAAAUGUAUUCAACAGAGGAUUGAGCAUCA
B21: chr4:17845017:17845018:+_ENSG00000109805_ENST00000514176|hu_mus|hu_hu_hu_mus_False|8_18 (ssRNA)
RNA: GGGAGUUCUACAGUCCGACGAUCGCUCUCUUAACUUGUAUCUUCAUUAAGGAACUCUGCAAGGUUAAGUUUACUUUUCUGUAGCGCAGCUGUUUUGGCUCGUCUGGGUAAUCUCAUUUCAUUUCUGAUUCUGGUUCCAUGAUCCAACAGAGGAUUGAGCAUCA
B22: chr22:46125322:46125323:+_ENSG00000130638_ENST00000252934|hu_mus|motif|central (ssRNA)
RNA: GGGAGUUCUACAGUCCGACGAUCAAAGAUAGAGAUGUCAUCCUUUGUCAGCUGCUCCUCACCCACUAGCUUGGCGGUCACGGUGUCGGACAGUGUGAUCCUUUCCUGGUUGCUGAGUUUGCCAUACAUAGCUUCCACCAGUUCCAACAGAGGAUUGAGCAUCA

molecular target: T1, UNK ZnF1-3 (human, UniProt Q9C0B0 31-174); test: nsRBNS (natural sequence RNA bind-n-seq); RBNS binding buffer (assumed for nsRBNS): 25 mM Tris pH 7.5, 150 mM KCl, 3 mM MgCl2, 0.01% Triton X-100, 500 ug/ml BSA, 20 U/ml SUPERase-In, 4 C; UNK is unkempt and MSI1 is Musashi-1; names of the RNAs are library labels; protein concentration not given here; high values mean tight binding
T1 sequence: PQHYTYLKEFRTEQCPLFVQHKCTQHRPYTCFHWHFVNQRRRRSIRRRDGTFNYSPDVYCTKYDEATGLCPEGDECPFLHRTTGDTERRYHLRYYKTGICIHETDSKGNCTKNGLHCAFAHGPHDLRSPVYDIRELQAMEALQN

Binder	binding signal [enrichment R]
B1	0.571
B2	1.12
B3	1.77
B4	0.744
B5	1.31
B6	1.75
B7	1
B8	1.56
B9	0.872
B10	0.749
B11	0.663
B12	1.13
B13	0.355
B14	0.55
B15	0.951
B16	0.76
B17	0.595
B18	1.43
B19	1.32
B20	1.43
B21	0.366
B22	0.811

Source: publication PMC12136788
